The other results are listed elsewhere or left out.
Tests used:
Test in all cases: glycan array binding signal (z-score within array); higher = stronger binding
Details in all cases: glycan notation: IUPAC condensed, linker removed
Neu5Ac(a2-8)Neu5Ac = target: Neu5Ac(a2-8)Neu5Ac
Summary of the method: (§1)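 From the Consortium for Functional Glycomics database, 3228 arrays were curated, keeping only those whose protein sequence was available. Binding is given as a within-array Z-score averaged across arrays sharing a protein sequence and across linkers. Negative Z-scores can be read as non-binding.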

[1] = target: Neu5Ac(a2-8)Neu5Ac(a2-3)Gal(b1-3)GalNAc(b1-4)[Neu5Ac(a2-3)]Gal(b1-4)Glc
Summary of the method: as §1

[2] = target: Neu5Ac(a2-8)Neu5Ac(a2-3)Gal(b1-3)GalNAc(b1-4)[Neu5Ac(a2-8)Neu5Ac(a2-3)]Gal(b1-4)Glc
Summary of the method: as §1

[3] = target: Neu5Ac(a2-8)Neu5Ac(a2-3)Gal(b1-4)Glc
Summary of the method: as §1

[4] = target: Neu5Ac(a2-8)Neu5Ac(a2-3)Gal(b1-4)GlcNAc
Summary of the method: as §1

[5] = target: Neu5Ac(a2-8)Neu5Ac(a2-3)[Gal(b1-3)GalNAc(b1-4)]Gal(b1-4)Glc
Summary of the method: as §1

[6] = target: Neu5Ac(a2-8)Neu5Ac(a2-3)[GalNAc(b1-4)]Gal(b1-4)Glc
Summary of the method: as §1

[7] = target: Neu5Ac(a2-8)Neu5Ac(a2-8)Neu5Ac
Summary of the method: as §1

[8] = target: Neu5Ac(a2-8)Neu5Ac(a2-8)Neu5Ac(a2-3)Gal(b1-4)Glc
Summary of the method: as §1

[9] = target: Neu5Ac(a2-8)Neu5Ac(a2-8)Neu5Ac(a2-3)[Gal(b1-3)GalNAc(b1-4)]Gal(b1-4)Glc
Summary of the method: as §1

[10] = target: Neu5Ac(a2-8)Neu5Ac(a2-8)Neu5Ac(a2-3)[GalNAc(b1-4)]Gal(b1-4)Glc
Summary of the method: as §1

[11] = target: Neu5Ac(a2-8)Neu5Ac(a2-8)Neu5Ac(a2-8)Neu5Ac(a2-3)[GalNAc(b1-4)]Gal(b1-4)Glc
Summary of the method: as §1

[12] = target: Neu5Ac(a2-8)Neu5Gc(a2-3)Gal(b1-4)GlcNAc
Summary of the method: as §1

[13] = target: Neu5Ac(b2-6)Gal(b1-4)GlcNAc
Summary of the method: as §1

Neu5Ac(b2-6)GalNAc = target: Neu5Ac(b2-6)GalNAc
Summary of the method: as §1

[14] = target: Neu5Ac9Ac(a2-3)Gal(b1-3)GlcNAc
Summary of the method: as §1

[15] = target: Neu5Ac9Ac(a2-3)Gal(b1-4)GlcNAc
Summary of the method: as §1

[16] = target: Neu5Ac9Ac(a2-6)Gal(b1-4)GlcNAc
Summary of the method: as §1

[17] = target: Neu5Gc(a2-3)Gal(b1-3)GlcNAc
Summary of the method: as §1

[18] = target: Neu5Gc(a2-3)Gal(b1-3)[Fuc(a1-4)]GlcNAc
Summary of the method: as §1

Neu5Gc(a2-3)Gal(b1-4)Glc = target: Neu5Gc(a2-3)Gal(b1-4)Glc
Summary of the method: as §1

[19] = target: Neu5Gc(a2-3)Gal(b1-4)GlcNAc
Summary of the method: as §1

[20] = target: Neu5Gc(a2-3)Gal(b1-4)GlcNAc(b1-3)Gal(b1-4)GlcNAc(b1-2)Man(a1-3)[Neu5Gc(a2-3)Gal(b1-4)GlcNAc(b1-3)Gal(b1-4)GlcNAc(b1-2)Man(a1-6)]Man(b1-4)GlcNAc(b1-4)GlcNAc
Summary of the method: as §1

[21] = target: Neu5Gc(a2-3)Gal(b1-4)[Fuc(a1-3)]GlcNAc
Summary of the method: as §1

[22] = target: Neu5Gc(a2-6)Gal(b1-4)GlcNAc
Summary of the method: as §1

Neu5Gc(a2-6)GalNAc = target: Neu5Gc(a2-6)GalNAc
Summary of the method: as §1

[23] = target: Neu5Gc(a2-8)Neu5Ac(a2-3)Gal(b1-4)GlcNAc
Summary of the method: as §1

[24] = target: Neu5Gc(a2-8)Neu5Gc(a2-3)Gal(b1-4)GlcNAc
Summary of the method: as §1

[25] = target: Neu5Gc(a2-8)Neu5Gc(a2-3)Gal(b1-4)GlcNAc(b1-3)Gal(b1-4)GlcNAc
Summary of the method: as §1

[26] = target: Neu5Gc(a2-8)Neu5Gc(a2-6)Gal(b1-4)GlcNAc
Summary of the method: as §1

[27] = target: Neu5Gc(b2-6)Gal(b1-4)GlcNAc
Summary of the method: as §1

B1: Pwp5 ND (Candida glabrata) (protein)
chain: MGSSHHHHHHSSGLVPRGSHMASANPVPLTNVCYFPEEYPRQAGFRAITAGLASTILQGSVDELLNYSGLSSLTTQQTTTTTPNFQLPTLPLPTNVYGLTVVPLYLLVQLQGYFVPPVSGQYTFSLENTNDAAIIFFGNPSAFPCGDLSAWPQASADDITVTDGTFPSRTLFLKAGVAYPMRISYYNSLGSGNLAVSFTDPGGTKRTNWNGYIWRYNSCSTCTYT
glycan array binding signal (z-score) (Neu5Ac(a2-8)Neu5Ac): 0.246
glycan array binding signal (z-score) [1]: 1.99
glycan array binding signal (z-score) [2]: -0.167
glycan array binding signal (z-score) [3]: -0.47
glycan array binding signal (z-score) [4]: -0.678
glycan array binding signal (z-score) [5]: -0.561
glycan array binding signal (z-score) [6]: 0.315
glycan array binding signal (z-score) [7]: 0.261
glycan array binding signal (z-score) [8]: -0.538
glycan array binding signal (z-score) [9]: 1.11
glycan array binding signal (z-score) [10]: -0.325
glycan array binding signal (z-score) [11]: -0.314
glycan array binding signal (z-score) [12]: -0.468
glycan array binding signal (z-score) [13]: -0.054
glycan array binding signal (z-score) (Neu5Ac(b2-6)GalNAc): -0.478
glycan array binding signal (z-score) [14]: 1.23
glycan array binding signal (z-score) [15]: -0.582
glycan array binding signal (z-score) [16]: -0.451
glycan array binding signal (z-score) [17]: -0.163
glycan array binding signal (z-score) [18]: -0.368
glycan array binding signal (z-score) (Neu5Gc(a2-3)Gal(b1-4)Glc): -0.348
glycan array binding signal (z-score) [19]: 0.098
glycan array binding signal (z-score) [20]: -0.542
glycan array binding signal (z-score) [21]: -0.423
glycan array binding signal (z-score) [22]: -0.248
glycan array binding signal (z-score) (Neu5Gc(a2-6)GalNAc): 0.028
glycan array binding signal (z-score) [23]: -0.52
glycan array binding signal (z-score) [24]: -0.127
glycan array binding signal (z-score) [25]: -0.428
glycan array binding signal (z-score) [26]: -0.294
glycan array binding signal (z-score) [27]: -0.439

Reference: the supplement of paper PMC8728848
